In all, about 33,000 sequences were measured (“E-score (-0.5 to 0.5)”: median about -0.016, highest 2% from about 0.31 on). Some of the results follow.
target: Cst6 (UniProt P40535); experiment: PBM E-score (8-mer binding enrichment) (E-score (-0.5 to 0.5)); higher = stronger / more preferred TF binding; most listed sequences are background and not binding sites; conditions: protein concentration: 200 nM; construct: GST-DNA-binding domain
Summary of the method: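 E-scores (a modified Wilcoxon-Mann-Whitney statistic) were assigned by the Universal PBM Analysis Suite to every ungapped eight-base word pooled with its reverse complement. The input came from universal all-10-mer Agilent arrays made double-stranded by primer extension and probed with GST-tagged yeast transcription factors at about 100-200 nM. Fluorescent anti-GST detected bound protein, and masliner normalised the scans.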

Sequence | PBM E-score
AGAGACGG | -0.0701
AGGTGTGA | 0.00921
AGTCTGTC | -0.1
ACTAGTGG | -0.136
CAGGGCGG | -0.26
AACAACGA | 0.0938
GCGGTCAC | 0.0311
AGGTCACA | -0.0345
AATGACAA | 0.267
TAGGCGAA | -0.0395
AGGACCTA | -0.131
CGCAGGCG | -0.0934
ACGAGACC | -0.15
AGCGATAG | -0.235
CCATGTTA | 0.0103
CCTCGTAA | 0.0951
AACTTCTA | -0.00743
TAATACCA | 0.182
AGCGTCGG | -0.0566
ACAGAGAG | -0.234
CCAGTTTA | -0.0927
CCCCATTC | -0.0994
GAAACTGC | -0.152
CGAGTTCC | -0.035
TAATCATA | 0.243

Sequence | PBM E-score
ATGCCACA | 0.179
GGAGGTAC | -0.267
AGGAGCGG | -0.207
AAGGCCAC | -0.181
CCACCAGC | -0.0867
GCCGGGAC | -0.33
GACGCCGA | 0.176
AGGGTGCG | -0.16
CGGGTCCA | -0.413
CCGCGCGG | 0.382
ACAATACA | -0.00055
ACCAATAC | 0.0422
TTAACAAA | 0.161
CGATACAA | 0.103
AGAGAGCA | -0.229
CACAAATA | 0.252
GCGTCGCA | -0.0671
TCCCGCGA | -0.182
ACTTATGC | 0.0183
GAGATATC | -0.0223
CGCCGTAG | 0.268
CAAAACTC | 0.0461
GGCGAACC | -0.0942
GCCCGCTA | -0.274
CGAATTAC | 0.165

Sequence | PBM E-score
TGATGACA | 0.368
AATGACCA | 0.0491
CGTGCACA | -0.0622
AGTTCGAC | -0.0147
TCGGAAAA | 0.113
GCTCCGCA | -0.164
ATGCATTC | 0.0817
CCCTCGAA | -0.284
GCAACTTA | 0.055
ACCACTAC | -0.0773
GTGCTAAA | 0.0621
CATAGCCG | 0.0286
CCAGGGCA | -0.228
CCCAGGAG | -0.331
ACGGGATA | 0.0544
AGTACTTA | -0.0277
ATAAGGTC | 0.0415
AGCCAACG | 0.0194
AGCGAACT | -0.0366
GACATATC | 0.184
CAGAACAA | 0.256
CCTCGAGC | -0.0484
TATGAATA | 0.122
AGTACCTA | 0.00893
AGTTAACA | 0.0861

Sequence | PBM E-score
GTAAACAC | 0.148
CACTTTCA | -0.0229
GCATGACC | -0.0381
GACCGTCA | 0.137
AACAGCAT | -0.0295
ATAGGGCA | -0.0627
CCATACCG | -0.00645
CGAGGCTA | -0.173
CAAGTAAC | 0.0522
CAACTAAA | 0.142
AACGAGTT | -0.148
CCCATTGA | 0.0297
GCCATCAC | 0.0711
GCACTCTA | -0.0783
ATGTATGA | 0.336
AGAATACT | 0.203
AACTAGTA | -0.0153
AAGTGTCC | -0.1
CAACCAGA | 0.0739
AGCCTTGG | -0.0725
CCCAGAAG | -0.0853
ACGGGTAT | 0.198
CAACATCG | 0.0506
GGCAACTA | 0.00772
ACATAGGG | -0.168

Sequence | PBM E-score
GCTTTACA | 0.0567
CGGATCAG | -0.14
GATAAACA | 0.0142
CTCGTTAA | -0.0443
AATTCGGA | 0.0143
GGCGTCCA | -0.0758
CAACGTTG | 0.31
ATCTTTGC | 0.209
ACGTTTAA | 0.253
GCAAACAA | 0.154
AGTCAAAC | -0.0902
CTTCCACA | -0.143
AGGATTAC | 0.0751
ATCGCCAC | 0.13
CCTAAAAC | -0.128
TACTCATA | 0.0871
ATGTTAAG | 0.037
ACGAGCTA | -0.046
GAAATCCC | -0.101
GGTCTGGA | -0.228
CTTGATAC | 0.15
GAGCACTC | -0.0473
GGACACCA | -0.0762
CAGGCGCC | 0.109
GCCATAAC | -0.0859

Sequence | PBM E-score
AAGCGCAC | -0.171
ACGATCAG | 0.0769
CTGAGCCA | -0.0491
TGAAAGCA | 0.0904
AACATCTC | -0.0459
GCTCCAAC | 0.0831
GTAACCTA | 0.192
AAACTTTG | 0.058
AACGAAAC | 0.155
GGCGTCAC | 0.431
GGGCCCTA | -0.352
AAAGCTGG | -0.177
GTGTCAAC | 0.0573
AGAATTTG | 0.00176
ATGCAACA | 0.159
CACAGTCG | -0.116
AACCAGGG | -0.149
TATATCCA | 0.239
GTAGGAAA | -0.0486
GCTCCGTA | 0.0421
ATATATAC | 0.281
AGCTCCCG | -0.415
CATTCAAA | 0.178
TACCGATA | 0.0472
AGGGTTGG | -0.116

Sequence | PBM E-score
CAATTTTA | 0.239
AATTGTCT | 0.064
GCCTCAGA | 0.151
CAACCCCG | -0.231
CGAACTCC | 0.0522
AACCCAGC | -0.225
GCCTATAA | -0.0984
GCGGACAC | 0.0039
CAAGCACG | 0.0319
AACCCCAT | -0.133
GACTCCCC | -0.35
GCGGCGTA | 0.23
AACCCCAC | -0.262
AAGATGCT | -0.128
GCGACAGC | -0.234
AAGAATGA | 0.294
CCCGTCCG | -0.302
CCAATCCA | -0.22
ACTCCAGC | -0.23
ACCACTAG | 0.00882
ACCGTCAT | 0.418
CGGCCCAG | -0.239
